According to the supplement of paper PMC4604168 (melanoma cell lines):
The other results are listed elsewhere or left out. Many values rest on one well or one pass, so single values are uncertain.

test system: RVH-421; test: cell count relative to DMSO control; melanoma cells; higher = more viable cells; conditions: library dose: standard library concentration; 72 h
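Note: cells treated in 1,536-well plates, then fixed and DAPI-stained, with nuclei counted from automated high-throughput microscope images.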

Question: With `CCCCCCCCc1ccc(CCC(N)(CO)CO)cc1` [fingolimod] + Cc1cc([N+](=O)[O-])ccc1NS(=O)(=O)c1cc(Cl)ccc1Cl [FH535] (first compound 10 µM, partner dose 5 µM) as the molecule, how does the cell count read?
Answer: 45.7%

Question: For `CN(NC(=O)CC(=O)NN(C)C(=S)c1ccccc1)C(=S)c1ccccc1` + COc1cc2c(Oc3ccc4[nH]c(C)cc4c3F)ncnc2cc1OCCCN1CCCC1 [cediranib] (first compound 0.03 µM, partner dose 2 µM), which cell count is on record?
Answer: 50.8%

Question: Which cell count does the source give for `CCc1ccc(CCOc2ccc(CC3SC(=O)NC3=O)cc2)nc1` (stereo not given) [pioglitazone] + O=C1NC(=O)/C(=C/c2ccc(-c3ccc(F)cc3O)o2)S1 [AS252424] (first compound 10 µM, partner dose 5 µM) here?
Answer: 111%

Question: Which cell count does the source give for `Cc1ccc(NC(=O)c2cccc(N(C)C)c2)cc1NC(=O)c1ccc(O)cc1` + CCCCCCCCCCCC1=C(O)C(=O)C=C(O)C1=O [Embelin] (first compound 10 µM, partner dose 6 µM) here?
Answer: 64.4%

Question: How did the cell count turn out when `Cc1ccc(NC(=O)c2cccc(N(C)C)c2)cc1NC(=O)c1ccc(O)cc1` + COc1ccc2c(c1)CCC1C2CCC2(C)C(NCCCCCCN3C(=O)C=CC3=O)CCC12 [U73122] (first compound 10 µM, partner dose 2 µM) was run?
Answer: 100%

Question: `CC(C)(C)c1cnc(CSc2cnc(NC(=O)C3CCNCC3)s2)o1` + CN(NC(=O)CC(=O)NN(C)C(=S)c1ccccc1)C(=S)c1ccccc1 [STA4783] (first compound 0.05 µM, partner dose 0.03 µM) was tested. Which cell count did it give?
Answer: 55.1%

Question: For `CN(NC(=O)CC(=O)NN(C)C(=S)c1ccccc1)C(=S)c1ccccc1` + COc1cc(N2CCC(N3CCN(C)CC3)CC2)ccc1Nc1ncc(Cl)c(Nc2ccccc2S(=O)(=O)C(C)C)n1 [NVP-TAE684] (first compound 0.03 µM, partner dose 0.4 µM), which cell count is on record?
Answer: 59.6%

Question: How did the cell count turn out when `CN(NC(=O)CC(=O)NN(C)C(=S)c1ccccc1)C(=S)c1ccccc1` + CCCCCCCCCCCC1=C(O)C(=O)C=C(O)C1=O [Embelin] (first compound 0.03 µM, partner dose 6 µM) was run?
Answer: 41.4%

Question: For `CC(C)(C)c1cnc(CSc2cnc(NC(=O)C3CCNCC3)s2)o1` + O=C(Nc1ccccc1)c1cc([N+](=O)[O-])ccc1Cl [GW9662] (first compound 0.05 µM, partner dose 10 µM), which cell count is on record?
Answer: 70.2%

Question: How did the cell count turn out when `CCCCCCCCc1ccc(CCC(N)(CO)CO)cc1` [fingolimod] + CCCS(=O)(=O)Nc1ccc(F)c(C(=O)c2c[nH]c3ncc(Cl)cc23)c1F [PLX4720] (first compound 10 µM, partner dose 0.4 µM) was run?
Answer: 19%

Question: For `CCCCCCCCc1ccc(CCC(N)(CO)CO)cc1` [fingolimod] + O=C(O)C(=O)Nc1sc2c(c1C(=O)O)CCNC2 [TCS401] (first compound 10 µM, partner dose 8.33333 µM), which cell count is on record?
Answer: 2.97%

Question: For `CCc1ccc(CCOc2ccc(CC3SC(=O)NC3=O)cc2)nc1` (stereo not given) [pioglitazone] + COC(=O)c1sccc1S(=O)(=O)Nc1ccc(Nc2ccccc2)cc1OC [GSK0660] (first compound 10 µM, partner dose 5 µM), which cell count is on record?
Answer: 100%

Question: With `COc1cc2c(Oc3ccc4[nH]c(C)cc4c3F)ncnc2cc1OCCCN1CCCC1` [cediranib] + COc1cc(N2CCC(N3CCN(C)CC3)CC2)ccc1Nc1ncc(Cl)c(Nc2ccccc2S(=O)(=O)C(C)C)n1 [NVP-TAE684] (first compound 2 µM, partner dose 0.4 µM) as the molecule, how does the cell count read?
Answer: 75.7%

Question: With `CC(C)(C)c1cnc(CSc2cnc(NC(=O)C3CCNCC3)s2)o1` + CCCCCCCCCCCC1=C(O)C(=O)C=C(O)C1=O [Embelin] (first compound 0.05 µM, partner dose 6 µM) as the molecule, how does the cell count read?
Answer: 76.5%

Question: How did the cell count turn out when `CCCCCCCCc1ccc(CCC(N)(CO)CO)cc1` [fingolimod] + CN1CCN(c2ccc3nc(-c4c(N)c5c(F)cccc5[nH]c4=O)[nH]c3c2)CC1 [Dovitinib] (first compound 10 µM, partner dose 0.5 µM) was run?
Answer: 4.85%

Question: Which cell count does the source give for `CCCCCCCCc1ccc(CCC(N)(CO)CO)cc1` [fingolimod] + COc1ccc2c(c1)CCC1C2CCC2(C)C(NCCCCCCN3C(=O)C=CC3=O)CCC12 [U73122] (first compound 10 µM, partner dose 2 µM) here?
Answer: 61.6%

Question: With `Cc1ccc(NC(=O)c2cccc(N(C)C)c2)cc1NC(=O)c1ccc(O)cc1` + Cc1cc(N2CCOCC2)cc2[nH]c(-c3c(NC[C@@H](O)c4cccc(Cl)c4)cc[nH]c3=O)nc12 [BMS536924] (first compound 10 µM, partner dose 1 µM) as the molecule, how does the cell count read?
Answer: 130%

Question: `NC(=O)c1ccc(N(C(N)=O)c2c(F)cccc2F)nc1-c1ccc(F)cc1F` + CCCCCCCCCCCC1=C(O)C(=O)C=C(O)C1=O [Embelin] (first compound 2 µM, partner dose 6 µM) was tested. Which cell count did it give?
Answer: 70.4%

Question: How did the cell count turn out when `NC(=O)c1ccc(N(C(N)=O)c2c(F)cccc2F)nc1-c1ccc(F)cc1F` + Cn1nnc2c(C(N)=O)ncn2c1=O [temozolomide] (first compound 2 µM, partner dose 10 µM) was run?
Answer: 86.5%

Question: For `CN(NC(=O)CC(=O)NN(C)C(=S)c1ccccc1)C(=S)c1ccccc1` + COc1ccc2c(c1)CCC1C2CCC2(C)C(NCCCCCCN3C(=O)C=CC3=O)CCC12 [U73122] (first compound 0.03 µM, partner dose 2 µM), which cell count is on record?
Answer: 130%

Question: With `NC(=O)c1ccc(N(C(N)=O)c2c(F)cccc2F)nc1-c1ccc(F)cc1F` + CN(NC(=O)CC(=O)NN(C)C(=S)c1ccccc1)C(=S)c1ccccc1 [STA4783] (first compound 2 µM, partner dose 0.03 µM) as the molecule, how does the cell count read?
Answer: 66.8%

Question: How did the cell count turn out when `Cc1ccc(NC(=O)c2cccc(N(C)C)c2)cc1NC(=O)c1ccc(O)cc1` + O=C(Nc1cccc(Cl)c1)Nc1ncc(CCNc2ncnc3ccsc23)s1 [SNS314] (first compound 10 µM, partner dose 0.004 µM) was run?
Answer: 87.8%

Question: How did the cell count turn out when `CCCCCCCCc1ccc(CCC(N)(CO)CO)cc1` [fingolimod] + COC(=O)c1sccc1S(=O)(=O)Nc1ccc(Nc2ccccc2)cc1OC [GSK0660] (first compound 10 µM, partner dose 5 µM) was run?
Answer: 11.1%

Question: Which cell count does the source give for `CCCCCCCCc1ccc(CCC(N)(CO)CO)cc1` [fingolimod] + CCCCCCCCCCCC1=C(O)C(=O)C=C(O)C1=O [Embelin] (first compound 10 µM, partner dose 6 µM) here?
Answer: 43.4%

Question: For `NC(=O)c1ccc(N(C(N)=O)c2c(F)cccc2F)nc1-c1ccc(F)cc1F` + CN1CCN(c2ccc3nc(-c4c(N)c5c(F)cccc5[nH]c4=O)[nH]c3c2)CC1 [Dovitinib] (first compound 2 µM, partner dose 0.5 µM), which cell count is on record?
Answer: 86%

Question: Which cell count does the source give for `CC(C)(C)c1cnc(CSc2cnc(NC(=O)C3CCNCC3)s2)o1` + NCC(=O)Nc1ccc(-n2nc(C(F)(F)F)cc2-c2ccc3c(ccc4ccccc43)c2)cc1 [OSU03012] (first compound 0.05 µM, partner dose 5 µM) here?
Answer: 84.6%

Question: With `CCCCCCCCc1ccc(CCC(N)(CO)CO)cc1` [fingolimod] + NC1(c2ccc(-c3nc4ccn5c(=O)[nH]nc5c4cc3-c3ccccc3)cc2)CCC1 [MK2206] (first compound 10 µM, partner dose 2 µM) as the molecule, how does the cell count read?
Answer: 9.78%

Question: For `CC(C)(C)c1cnc(CSc2cnc(NC(=O)C3CCNCC3)s2)o1` + Oc1cc(-c2nc(-c3ccccc3)[nH]c2-c2ccncc2)ccc1Cl [L779450] (first compound 0.05 µM, partner dose 1 µM), which cell count is on record?
Answer: 93.3%

Question: With `CCc1ccc(CCOc2ccc(CC3SC(=O)NC3=O)cc2)nc1` (stereo not given) [pioglitazone] + Oc1nc(-c2ccc(C(F)(F)F)cc2)nc2c1CSCC2 [XAV939] (first compound 10 µM, partner dose 10 µM) as the molecule, how does the cell count read?
Answer: 95.2%

Question: For `COc1cc2c(Oc3ccc4[nH]c(C)cc4c3F)ncnc2cc1OCCCN1CCCC1` [cediranib] + Cn1cc(/C=C2\C(=O)Nc3cccnc32)c2ccccc21 [GW441756] (first compound 2 µM, partner dose 2 µM), which cell count is on record?
Answer: 68.7%

Question: For `CCCCCCCCc1ccc(CCC(N)(CO)CO)cc1` [fingolimod] + Cn1cncc1[C@@](N)(c1ccc(Cl)cc1)c1ccc2c(c1)c(-c1cccc(Cl)c1)cc(=O)n2C [tipifarnib] (first compound 10 µM, partner dose 0.05 µM), which cell count is on record?
Answer: 28.9%

Question: `CCc1ccc(CCOc2ccc(CC3SC(=O)NC3=O)cc2)nc1` (stereo not given) [pioglitazone] + Cc1cc([N+](=O)[O-])ccc1NS(=O)(=O)c1cc(Cl)ccc1Cl [FH535] (first compound 10 µM, partner dose 5 µM) was tested. Which cell count did it give?
Answer: 59.6%

Question: With `CCCCCCCCc1ccc(CCC(N)(CO)CO)cc1` [fingolimod] + COCC[n+]1c2c(n(Cc3cnccn3)c1C)C(=O)c1ccccc1C2=O [YM155] (first compound 10 µM, partner dose 0.002 µM) as the molecule, how does the cell count read?
Answer: 3.73%

Question: `NC(=O)c1ccc(N(C(N)=O)c2c(F)cccc2F)nc1-c1ccc(F)cc1F` + O=C1NC(=O)/C(=C/c2ccc(-c3ccc(F)cc3O)o2)S1 [AS252424] (first compound 2 µM, partner dose 5 µM) was tested. Which cell count did it give?
Answer: 93.7%

Question: With `NC(=O)c1ccc(N(C(N)=O)c2c(F)cccc2F)nc1-c1ccc(F)cc1F` + Cc1nc(Nc2ncc(C(=O)Nc3c(C)cccc3Cl)s2)cc(N2CCN(CCO)CC2)n1 [dasatanib] (first compound 2 µM, partner dose 0.02 µM) as the molecule, how does the cell count read?
Answer: 71.9%
